From PubChem BioAssay AID651820 (National Center for Advancing Translational Sciences (NCATS), 2012)
Hit rate of the full screen: of about 340,000 compounds, about 12,000 (3.5%) were called active. This list was built around the results that the source calls inconclusive (neither active nor inactive); the mix of calls is not that of the screen. Calls follow the shape of the dose curve; as a rule, active = well fitted inhibition curve with a large enough effect; inconclusive = small, poorly fitted or top-dose-only effect, or another doubt; inactive = no such curve, though single readings can be large or run the other way. Potencies of inconclusive entries are left out as doubtful fits.

Assay: qHTS Assay for Inhibitors of Hepatitis C Virus (HCV)
Settings: Huh7.5.1 HCVcc-Cre (HCVcc is cell-culture hepatitis C virus) infection, luciferase reporter, 44 h; activity change, negative = inhibition: at 41.8 µM (top of the series) unless noted
Method in brief: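 Whole-lifecycle infectious HCVcc-Cre system; cells 1,000/well, compound then virus (~0.5 moi) added 4 h after plating, 44 h culture. Luciferase read 15 sec following 15 min substrate incubation, room temp.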
% is scaled to controls: 0 for no effect and ±100 for the full control effect; potency is read from the fitted curve at half-maximal effect; tags tell the direction and shape of the fitted curve.

Structure (SMILES) | Potency | activity change, negative = inhibition
O=C(NC1CC1)c1cc(OCC(F)(F)F)ccc1OCC(F)(F)F | inconclusive [inhibitor, single point] | –
CCOC(=O)c1csc(Nc2nc3ccc(F)cc3s2)n1 | inconclusive [inhibitor, single point] | –
N=C1C(c2ccccc2)=C(O)CN1c1cccc(S(=O)(=O)N2CCCCC2)c1 | – | inactive: -2.71%
COc1ccc(N2CCN(C(=O)c3cc4cc(Cl)ccc4[nH]3)CC2)cc1 | – | inactive: 14.7%
O=C(NN=Cc1ccc(O)cc1)c1ccccc1NS(=O)(=O)c1cccs1 | – | inactive: 9.94%
COCCn1c(C)cc(C(=O)CSc2nc3ccccc3c(=O)n2Cc2ccco2)c1C | inconclusive [inhibitor, single point] | –
Cc1ccc2[nH]c(C)c(CC(=O)O)c2c1 | – | inactive: 4.22%
COc1ccccc1N(CC(=O)NCCSc1ccc(Cl)cc1)S(C)(=O)=O | – | inactive: 15.7%
COc1ccccc1C(=O)Nc1nc(C)cc(C)n1 | – | inactive: 12.5%
O=C(Cn1ccc(NC(=O)OCc2ccccc2)nc1=O)NCc1ccc2[nH]ccc2c1 | – | inactive: -1.26%
O=C(O)c1cc(N2C(=O)C3CC=CCC3C2=O)ccc1NCc1cccnc1 (configuration not stated) | – | inactive: 13.2%
O=C(NC1CCN(Cc2ccccc2)CC1)c1ccccc1NS(=O)(=O)c1ccc(F)c(F)c1 | inconclusive [inhibitor, partial curve] | –
CC(C)CN1C(=O)C(=O)N(CC(=O)N2c3ccccc3NC(=O)CC2C)C1=O (configuration not stated) | – | inactive: -1.97%
Cc1cc(C(=O)Nc2ccc(F)cc2)c2ccccc2n1 | – | inactive: -3.49%
COc1ccc2[nH]c3c(c2c1)CCN1C(=O)N([C@@H](C)C(=O)NCc2ccco2)C(=O)[C@]31C | inconclusive [inhibitor, single point] | –
CCOc1ccc2nc(Nc3nc(CSc4nnnn4-c4ccccc4)cc(=O)[nH]3)nc(C)c2c1 | inconclusive [inhibitor, partial curve] | –
COc1ccc(OC)c(/C=C2\S/C(=N/NC(=O)c3ccc4ccccc4c3)NC2=O)c1 | – | inactive: 13%
CC(C)OCCCn1c(=S)[nH]c2cc3c(cc2c1=O)OCO3 | inconclusive [inhibitor, single point] | –
O=C(Nc1cccc(NC(=O)c2cc([N+](=O)[O-])ccc2Cl)n1)c1cc([N+](=O)[O-])ccc1Cl | active: 1.12 µM | –
[S-]C(=Nc1ccc(Cl)cc1)N[n+]1ccccc1 | – | inactive: 8.54%
CCOC(=O)C1=C(N)OC2=C(C(=O)CCC2)C12C(=O)N1c3c(ccc(C)c32)C(C)=CC1(C)C (configuration not stated) | inactive | –
CCCOP(=O)(c1ccc(N(C)C)cc1)C(Nc1ccccc1)c1ccc(C)cc1 (configuration not stated) | inconclusive [inhibitor, single point] | –
COc1ccc(/C(C)=N/Nc2nc(C)cc(-c3ccccc3)n2)cc1 | active: 10 µM | –
O=C1C(NS(=O)(=O)c2ccc(Br)cc2)=C(N2CCCCC2)C(=O)c2ccccc21 | inconclusive [inhibitor, single point] | –

Structure (SMILES) | Potency | activity change, negative = inhibition
Cc1cccc(NC(=O)Nc2ccc(S(N)(=O)=O)cc2)c1 | – | inactive: -5.46%
CCCNCc1cc(OC)c(OCC(=O)Nc2ccccc2)cc1Br | inconclusive [inhibitor, partial curve] | –
CCn1c(SCc2nc(-c3cccs3)no2)nnc1-c1c[nH]c2ccccc12 | inconclusive [inhibitor, full curve] | –
Cc1cccn2c(=O)nc(SCC(=O)c3ccccc3)nc12 | – | inactive: -14.7%
N#CC1=C(N)NC(SCC(=O)Nc2ccc(Br)cc2)=C(C#N)C12CCCCC2 | inconclusive [inhibitor, single point] | –
Cc1ccc(CC(=O)N2CCN(c3ccccc3F)CC2)cc1 | – | inactive: -0.786%
COC(=O)C1=C(c2ccc(-c3ccccc3)c(F)c2)C[C@@H]2CC[C@H]1N2C(=O)NCCOc1ccccc1Cl | active: 14.1 µM | –
N#Cc1c2c(c(NCCOCCO)n3c1nc1ccccc13)CCCC2 | – | inactive: 4.44%
CC(C)(C)c1nnc(N/N=C/c2ccccc2O)n(N)c1=O | inconclusive [inhibitor, single point] | –
Cc1ccc(OC(=O)c2ccccc2)cc1C | – | inactive: 10.6%
COc1cccc(-c2csc(N3CCN(CC(=O)Nc4ccc5c(c4)OCO5)CC3)n2)c1 | inconclusive [inhibitor, partial curve] | –
O=C(Nc1nnc(-c2cccs2)o1)c1cccc(C(F)(F)F)c1 | inconclusive [inhibitor, partial curve] | –
COc1ccc(-c2cc(C(F)(F)F)nc(N3CCN(C)CC3)n2)cc1OC | inconclusive [inhibitor, partial curve] | –
O=c1cc(CN2CCC3(CC2)OCCO3)c2c(ccc3ccccc32)o1 | inconclusive [inhibitor, partial curve, poor fit] | –
COc1ccccc1NC(=S)NC(=O)c1c(-c2ccccc2Cl)noc1C | inconclusive [inhibitor, single point] | –
O=C(C[C@H]1C[C@H](C(=O)N2CCOCC2)[C@@]2(CCC3CCCC3)c3[nH]c4ccc(Cl)cc4c3CCN2C1=O)NCCCn1ccnc1 | inconclusive [inhibitor, single point] | –
CCOc1ccc(N=Cc2c(O)n(CCc3ccc(OC)c(OC)c3)c(=O)[nH]c2=O)cc1 | inconclusive [inhibitor, single point] | –
CCCNC(=O)c1ccc(C2SCC(=O)N2CCc2ccccc2)cc1 (configuration not stated) | inconclusive [inhibitor, single point] | –
Cc1cccc(N2CCN(C(=O)Cc3ccc(Br)cc3)CC2)c1C | inconclusive [inhibitor, single point] | –
Cc1noc(NC(=O)c2ccc(Cl)cc2)c1Cl | – | inactive: 6.64%
COc1cccc(NC(=O)c2cc(-c3ccc(OC)cc3OC)nc3ccccc23)c1 | inconclusive [inhibitor, single point] | –
O=C(NC(=S)Nc1ccc(N2CCCCC2)cc1)c1cccs1 | – | inactive: -28%
CCn1c(=N)n(CC(O)COc2ccc(C)cc2)c2ccccc21 (configuration not stated) | – | inconclusive: -36.5% [inhibitor]
CCN(CC)CCC(c1ccc(OC)cc1)c1c(O)cc(OC)cc1OC (configuration not stated) | – | inactive: -14.1%

Structure (SMILES) | Potency | activity change, negative = inhibition
CCn1c(/C=C2\C(=O)N(C(C)C)c3ccccc32)nc2ccccc2c1=O | inconclusive [inhibitor, partial curve, poor fit] | –
CN(C)c1ccc(CN(C(=O)c2cc3ccccc3oc2=O)C2CCS(=O)(=O)C2)cc1 (configuration not stated) | – | inactive: -13.7%
O=C(NC1CCCCC1)C(c1ccc2ncccc2c1)N(Cc1ccccc1)C(=O)c1cccs1 (configuration not stated) | inconclusive [inhibitor, single point] | –
CCCn1c2ccccc2c2cnn(CC(=O)NCCCN3CCN(c4ccccc4)CC3)c(=O)c21 | active: 11.2 µM | –
O=C(O)c1ccc(/C=N/NC(=O)c2ccc3c(c2)OCCO3)cc1 | – | inactive: 13.8%
Clc1ccc2nc(N3CCN(c4ccccc4)CC3)sc2c1 | – | inactive: 6.09%
Cc1ccnc(NS(=O)(=O)c2ccc(NC(=O)CN3C(=O)CCC3=O)cc2)n1 | – | inactive: 22.2%
CCCCC(=O)N1C/C=C\[C@H](c2ccc(OC)cc2)N(Cc2ccc(F)cc2)C(=O)[C@@H]1C | inconclusive [inhibitor, single point] | –
CCOC(=O)c1sc(Nc2cccc(Cl)c2)nc1C | inconclusive [inhibitor, single point] | –
NC(=O)C1CCCN(C(=O)c2ccc(-c3cccc(Cl)c3Cl)o2)C1 (configuration not stated) | inconclusive [inhibitor, single point] | –
CCOC(CCn1c(SCc2ccc([N+](=O)[O-])cc2)nc2ccccc2c1=O)OCC | inconclusive [inhibitor, single point] | –
Cc1nn(C(=O)/C(C#N)=C/N(C)C)c(C)c1C | inconclusive [inhibitor, partial curve] | –
Cc1cccc(NC(c2ccc(C)s2)c2ccc3ccc(C)nc3c2O)n1 (configuration not stated) | inconclusive [inhibitor, partial curve] | –
CCOc1ccc(CCNC(=O)COC(=O)c2cccnc2SC)cc1OCC | inconclusive [inhibitor, single point] | –
Cc1cccc(N2CCN(C(=O)CNC(=O)Cc3ccccc3)CC2)c1C | inconclusive [inhibitor, single point] | –
CCN(CC)c1nc(Oc2ccc(C(=O)NN)cc2)nc(Oc2ccc(C(=O)NN)cc2)n1 | – | inactive: -11.6%
CCc1cc(=O)oc2c3c(cc(OCC(=O)NC4CC4)c12)OC(C)(C)CC3 | active: 0.794 µM | –
N#Cc1cc(-c2ccccc2)nc(Oc2ccc(Cl)cc2)n1 | inconclusive [inhibitor, single point] | –
COc1ccc(-c2ccc3c(c2)S(=O)(=O)c2cccc(C(=O)N4CCN(C5CCCCC5)CC4)c2C3=O)cc1OC | inconclusive [inhibitor, partial curve] | –
COC(=O)c1ccc(COc2ccc(Cl)cc2)o1 | – | inactive: 11.8%
CCOc1cccc2sc(N(CCN(C)C)C(=O)c3ccc4ccccc4c3)nc12 | inconclusive [inhibitor, partial curve] | –
COc1ccccc1NC(=O)Cc1noc(CSc2cc(C)c3ccccc3n2)n1 | active: 11.2 µM | –
COc1ccccc1/C=C/C1(C(=O)NC2CCCC2)CC(=O)N1c1ccc(F)cc1 (configuration not stated) | inconclusive [inhibitor, single point] | –
CN(C)C(=O)C(CCN1CCC(O)(c2ccc(Cl)cc2)CC1)(c1ccccc1)c1ccccc1 | inconclusive [inhibitor, single point] | –
